# Out of some 310,000 compounds screened, about 14,000 (4.5%) showed an effect of 50% or more. The effect is printed as a negative number. The list shows a part of the results.
# Molecular target: human ether-à-go-go-related gene (hERG) potassium channel (human, UniProt Q12809)
# Assay: primary screen, population patch clamp on CHO cells stably expressing hERG
# 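Also: peak tail current of the secondary pulse compared with the same well before compound.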
# human ether-à-go-go-related gene (hERG) potassium channel, sequence (Q12809 whole entry, looked up): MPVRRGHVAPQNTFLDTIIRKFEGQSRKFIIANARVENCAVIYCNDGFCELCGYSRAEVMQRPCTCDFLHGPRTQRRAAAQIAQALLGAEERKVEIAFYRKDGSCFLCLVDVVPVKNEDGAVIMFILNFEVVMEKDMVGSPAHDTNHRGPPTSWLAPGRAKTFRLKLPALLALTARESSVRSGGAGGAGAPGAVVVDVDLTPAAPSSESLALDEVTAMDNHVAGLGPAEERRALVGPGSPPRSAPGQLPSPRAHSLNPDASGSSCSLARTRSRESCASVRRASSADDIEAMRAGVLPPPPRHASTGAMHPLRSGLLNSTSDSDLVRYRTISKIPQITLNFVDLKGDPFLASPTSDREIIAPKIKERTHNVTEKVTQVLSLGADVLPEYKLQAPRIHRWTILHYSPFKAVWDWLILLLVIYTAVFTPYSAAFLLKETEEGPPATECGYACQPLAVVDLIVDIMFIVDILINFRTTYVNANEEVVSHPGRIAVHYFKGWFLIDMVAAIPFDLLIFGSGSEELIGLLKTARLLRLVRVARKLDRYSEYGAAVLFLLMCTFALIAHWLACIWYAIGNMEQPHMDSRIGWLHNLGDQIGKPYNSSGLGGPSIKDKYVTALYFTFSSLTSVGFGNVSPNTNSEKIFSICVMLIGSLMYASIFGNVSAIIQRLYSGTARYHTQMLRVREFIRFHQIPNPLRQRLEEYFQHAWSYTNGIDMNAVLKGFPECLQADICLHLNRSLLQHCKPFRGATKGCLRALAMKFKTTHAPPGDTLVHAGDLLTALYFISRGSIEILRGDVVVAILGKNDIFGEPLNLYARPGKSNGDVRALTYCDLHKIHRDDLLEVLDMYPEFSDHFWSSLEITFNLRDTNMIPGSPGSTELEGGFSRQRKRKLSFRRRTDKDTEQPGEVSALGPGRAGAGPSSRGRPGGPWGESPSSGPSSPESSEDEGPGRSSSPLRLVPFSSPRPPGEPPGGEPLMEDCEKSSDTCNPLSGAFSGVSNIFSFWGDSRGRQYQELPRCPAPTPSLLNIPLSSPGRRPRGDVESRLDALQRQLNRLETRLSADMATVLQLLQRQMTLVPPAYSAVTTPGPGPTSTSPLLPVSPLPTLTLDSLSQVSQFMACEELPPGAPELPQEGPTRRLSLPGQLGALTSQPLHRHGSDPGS
row,Structure (SMILES),"hERG current change (%, negative = inhibition) at 10uM [%]"
1,CN(C)C(=O)Oc1noc2cc(Cl)ccc12,-4.47
2,O=C(Cn1nc(C(F)(F)F)c2c1CCCC2)NCc1ccco1,-12.1
3,CCc1nnc(NC(=O)CSc2nnc(-c3ccco3)o2)s1,12.1
4,COc1ccc(S(=O)(=O)N2CCN(Cc3ccco3)CC2)cc1.O=C(O)C(=O)O,13.9
5,Cc1c(C(=O)OC2CCC(C)CC2)[nH]c2c1C(=O)CCC2 (stereo not shown),-3.25
6,COc1cccc(NS(=O)(=O)c2ccc(S(=O)(=O)N3CCOCC3)cc2)c1,-7.99
7,CC1CCCCC1NC(=O)C1CCN(S(=O)(=O)c2cccc3nonc23)CC1 (stereo not shown),6.82
8,COc1ccc(CCNC(=O)CN(c2ccc(OC)c(OC)c2)S(C)(=O)=O)cc1,3.96
9,CN(CC(=O)Nc1ccc(S(=O)(=O)N2CCCC2)cc1)CC(=O)Nc1ccc(F)c(F)c1F,-0.661
10,CC1(c2ccccc2)NC(=O)N(CC(=O)Nc2ccccc2N2CCCC2)C1=O (stereo not shown),13.4
11,Cc1noc(/C=C/N(C)C)c1S(=O)(=O)N1CCCC(C(=O)NCCC2=CCCCC2)C1 (stereo not shown),3.98
12,NC(=O)c1ccc(NCc2ccco2)c([N+](=O)[O-])c1,6.16
13,CC(=O)c1c(C)[nH]c(C(=O)OCn2nnc3ccccc3c2=O)c1C,9.87
14,Cc1nc([N+](=O)[O-])cn1CC(=O)Nc1ccc(Cl)cc1,5.72
15,Cc1ccccc1C(=O)OCCCN=C1NS(=O)(=O)c2ccccc21,-5.11
16,S=C1NCCNC(=S)NCCOCCN1,22.4
17,Cn1c(=O)c(C(=O)Nc2ccccc2S(N)(=O)=O)c(O)c2ccccc21,-7.99
18,COc1cc(Cl)c([C@@H]2C[C@H]3CN(c4ccccc4)C(=O)[C@]34CCCN24)cc1OC,-70.9
19,CN(C)c1ccc(/C=C(/C(=O)c2ccc(Cl)cc2Cl)n2cncn2)cc1,-10.4
20,COCCN(C(=S)Nc1ccc(C(C)C)cc1)C(C)c1cccs1 (stereo not shown),8.26
21,Cc1c(NC(=O)C(C)OC(=O)/C=C/c2ccc(OC(F)F)cc2)c(=O)n(-c2ccccc2)n1C (stereo not shown),-23.1
22,CC(C)[C@H](NC(=O)[C@H]1N2C(=O)c3ccccc3C2SC1(C)C)C(=O)NCc1ccco1 (stereo partly shown),2.21

row,Structure (SMILES),"hERG current change (%, negative = inhibition) at 10uM [%]"
1,Cc1cc(=O)oc2cc(OC(C)C(=O)Nc3ccc(N4CCCCC4)cc3)ccc12 (stereo not shown),23.6
2,Nc1ccc(N=Nc2ccccc2)c2cccnc12,17.2
3,O=C(Nc1ccc2c(c1)C(=O)NC2=O)c1cccc(Cl)c1,11.3
4,Cc1ccc2nc(/C(C#N)=C/c3ccc(O)c(O)c3)[nH]c2c1,7.82
5,CCCCN(Cc1ccccc1)C(=O)C1CCN(S(=O)(=O)c2c(C)noc2C)CC1,17.5
6,O=C(CNC(=O)/C(=C/c1ccccc1)NC(=O)c1ccc(Br)cc1)OCc1ccccc1,-64
7,C=CCNC(=O)Nc1ccc(Br)cc1Cl,13.8
8,Cc1c(O)ccc2c(CC(=O)N[C@@H](Cc3ccccc3)C(=O)O)cc(=O)oc12,14.7
9,Cl.OCCNCc1c(OCc2ccc(Cl)cc2)ccc2ccccc12,-77.4
10,Cc1cc(=O)cc(C)[nH]1,3.9
11,Cc1nn(Cc2ccccc2Cl)c(C)c1N,5
12,CC(C)S(=O)(=O)c1csc(NC(=O)Nc2cc(Cl)ccc2Cl)c1Cl,0.66
13,O=C(CCc1nnc2n(CCc3ccccc3)c(=O)c3ccccc3n12)NCCCN1CCCCC1,-77.6
14,CCOC(=O)c1cn(Cc2ccc(Cl)cc2Cl)c2cc(C)nn2c1=O,-35.2
15,Cc1ccc(C(=O)OCC(=O)Nc2cccc(S(=O)(=O)NC3=NCCCCC3)c2)c(C)c1,-15.4
16,O=S(=O)(c1ccc(F)cc1)n1ccc(-c2cccc(OCc3ccc(Cl)cc3Cl)c2)n1,13.4
17,CCCCCCCCCCCCCCCC[n+]1cccc2ccccc21.[I-],-71.2
18,CC(=O)c1ccc(Oc2nc3c(c(=O)n(C)c(=O)n3C)n2C)cc1,-2.77
19,CN(Cc1cccc(F)c1)C(=O)CN1C(=O)NC2(CCc3ccccc32)C1=O (stereo not shown),-0.338
20,O=S(=O)(CCN1CCOCC1)c1ccccc1,8.81
21,C/C(=N\S(=O)(=O)c1ccc(C)cc1)N(C)C,6.9
22,COc1ccc(C(=O)N/C(=C\c2cn(S(=O)(=O)N(C)C)c3ccccc23)C(=O)NCCCn2ccnc2)cc1,1.07

row,Structure (SMILES),"hERG current change (%, negative = inhibition) at 10uM [%]"
1,CC(C)CCNC(=O)Cc1c(C(=O)O)[nH]c2ccc(Cl)cc12,17.6
2,O=C(COC(=O)CNC(=O)C1CCCCC1)Nc1ccc(Cl)cc1F,-4.38
3,O=C1CN(c2ccccc2F)C(=O)CN1c1ccccc1F,4.63
4,CCOc1ccc2nc(NC(=O)CSC3=NCCS3)sc2c1,2.84
5,CCN(CC(=O)NCc1ccc(F)cc1)Cc1nc2cc(Cl)ccc2c(=O)[nH]1,-72.6
6,COCCCNC(=O)c1cc(S(=O)(=O)N2CCOCC2)ccc1SCc1cccc(OC)c1OC,-23.9
7,Cc1ccc(C(=O)NC(C)CCc2ccccc2)cc1[N+](=O)[O-] (stereo not shown),-13.9
8,COc1nc(N)nc(NC23CC4CC(CC(C4)C2)C3)n1,-39.7
9,Nc1ccccc1SCc1cc([N+](=O)[O-])cc2c1OCOC2,-21.2
10,CCN(CC)S(=O)(=O)c1cc(NC(=O)CNc2cccc(S(=O)(=O)N3CCCC3)c2)ccc1C,-18.1
11,CCc1sc(NS(C)(=O)=O)nc1-c1ccccc1,-10.3
12,COc1ccc(N(CC(=O)NC2CCCCCC2)S(=O)(=O)c2c(C)nn(C)c2C)cc1,-28.2
13,O=C(CS(=O)c1ccc(C(F)(F)F)cc1[N+](=O)[O-])Oc1ccc(Cl)cc1 (stereo not shown),25.1
14,N#Cc1ccc(Cl)cc1NC(=O)CNCc1cccs1.O=C(O)C(=O)O,-22.2
15,O=C1c2ccccc2-c2nc3ccccc3nc21,-17.4
16,CC(C)(C)OC(=O)N1CCC(c2c(C(=O)NC3CC3)cnn2-c2ccccc2)CC1,-22.9
17,CCOc1ccccc1OCC(=O)Nc1ccc(S(=O)(=O)Nc2ncccn2)cc1,2.36
18,Cc1cc(=O)c2c(C)nn(-c3ccccc3)c2[nH]1,-8.94
19,O=C(O)C1CC(=O)N(c2ccc3c(c2)OCCO3)C1 (stereo not shown),5.75
20,CCC(=O)N1CCN(c2nc(CC)nc3sc4c(c23)CCCC4)CC1,-71.7
21,CNC(=O)C(=O)NCC1OCCCN1S(=O)(=O)c1cccs1 (stereo not shown),-7.69
22,Cc1cc(C)n(/N=C/c2ccccc2)c(=O)c1C#N,17

row,Structure (SMILES),"hERG current change (%, negative = inhibition) at 10uM [%]"
1,Cc1ccc(NC(=O)c2cccc(S(=O)(=O)N3CCN(C)CC3)c2)cc1F,-24.8
2,CCN(CC)c1nc(NN)nc(Nc2ccc(C)c(Cl)c2)n1,14.7
3,O=C(O)CNC(=S)NCc1ccccc1,3.64
4,O=S(=O)(NCCNc1ncc(C(F)(F)F)cc1Cl)C(F)(F)F,-49.7
5,CCn1c(C(C)NC(=O)Cc2ccccc2)nc2ccccc21 (stereo not shown),-2.26
6,O=C(NC1CCCCC1)C(c1ccncc1)N(Cc1ccccc1)C(=O)c1ccc(-c2ccccc2)[nH]1 (stereo not shown),4.6
7,O=C(COc1ncnc2ccc(Br)cc12)Nc1ccc(N2CCOCC2)cc1,-5.34
8,CSc1ccc(/C=C/C(=O)c2c(O)cc(C)oc2=O)cc1,13.2
9,COc1ccc(CCNC(=O)c2ccc(CNc3nc(=S)[nH]c4ccccc34)cc2)cc1OC,0.739
10,COc1cc(-c2c(C#N)c(N)nc3c2CCCC3)cc(OC)c1OC,-10.8
11,C/C(Cl)=C\Cn1c(O)c(N=NC(N)=S)c2cc(Br)ccc21,8.96
12,O=C(NCCN1C(=O)S/C(=C\c2ccccc2F)C1=O)C1=COCCO1,-0.827
13,CCOC(=O)C1CCCN(c2nc3ccccc3nc2C(C#N)C(=O)OCC)C1 (stereo not shown),-14
14,COCCCN(C(=O)CCSc1ccc(F)cc1)c1c(N)n(Cc2ccccc2)c(=O)[nH]c1=O,4.09
15,CCOc1ccc(C(=O)NCc2ccco2)cc1OCC,13.3
16,C=Cc1ccc(C(=O)N2CCCC(CCC(=O)N3CCN(c4ccccn4)CC3)C2)cc1 (stereo not shown),-4.57
17,CNNC(=S)Nc1cccc(SC)c1,13.9
18,CCOC(=O)c1sc(NC(=O)CN2C(=O)NC3(CC(C)CC(C)(C)C3)C2=O)c(C(=O)OCC)c1C (stereo not shown),5.85
19,COc1ccccc1CNC(=O)C(=O)NCC1OCCN1C(=O)c1ccc(Cl)cc1 (stereo not shown),-7.88
20,CCc1ccc(NC(=S)N2CCN(C)CC2)cc1,1.15
21,CCOc1ccc(C2NC(=O)C(C#N)=C(S)N2c2ccc(OC)cc2)cc1OC (stereo not shown),-1.41
22,CN(CC(=O)Nc1cccc(F)c1)C(=O)C1CSC2(C)CCC(=O)N12 (stereo not shown),4.69

# Reference: publication PMC4336329 (PLoS ONE, 2015)
